In PubChem BioAssay AID1347417 (National Center for Advancing Translational Sciences (NCATS), 2020):
Out of some 120,000 compounds screened, about 5,300 (4.4%) were called active. Inconclusive results, whose numbers are uncertain, are shown with a selection of clear calls. Calls come from the whole dose curve; as a rule, active = well fitted inhibition curve with a large enough effect; inconclusive = small, poorly fitted or top-dose-only effect; inactive = no such curve, though single readings can be large or run the other way. Potencies beside an inconclusive call are fits to weak or partial responses and may not hold up.

Assay: qHTS Primary assay for Inhibitors of Plasmodium falciparum Dd2 growth in vitro; note: nearly all actives have a fitted effect of over 65% in size;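 for activity, negative = inhibition: plate controls were DMSO vehicle for no effect and reference drug for full effect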
Details: P. falciparum Dd2 growth, SYBR Green, 72 h; activity, negative = inhibition: at 28.9 µM (top of the series) unless noted; series mostly up to 28.9 µM
Summary of the method: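 Infected erythrocytes (Dd2, 0.3% parasitemia, 2.5% hematocrit final) are added to compound in RPMI-1640/Albumax II medium, grown 72 h at 37C in low oxygen, then lysed with saponin/Triton-X containing SYBR Green and read by fluorescence.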
Potency is the fitted concentration of half-maximal effect; tags give direction and shape of the fitted curve.

| SMILES | Potency | activity, negative = inhibition | outcome |
| --- | --- | --- | --- |
| OC1CCOC2(CCN(Cc3cccc4[nH]ccc34)CC2)C1 (stereo unspecified) | inconclusive: 7.94 µM [inhibitor, partial curve, poor fit] | – | – |
| COCCNC(=O)Cc1csc2nc(C)c(-c3cc(C)n(-c4ccccc4F)n3)c(=O)n12 | – | inactive: -14.5% | – |
| O=C(c1ccccc1OCC1CCCNC1)N1CCCC1 (stereo unspecified) | – | inactive: -12.5% | – |
| COc1ccccc1NC(=O)N1CCCC(Cn2c(C)nc3cccnc32)C1 (stereo unspecified) | inconclusive: 15.8 µM [inhibitor, single point] | – | – |
| Cc1cc(F)ccc1CC(=O)N1CC[C@H](N(C)C)[C@H](CCC(=O)O)C1 | – | inactive: 1.43% | – |
| C[C@H](NC(=O)C[C@@H]1c2nc(NC(=O)c3ccc(F)cc3)sc2C[C@@H]2[C@](C)(CO)[C@H](O)CC[C@]21C)c1ccccc1 | active: 2.51 µM | – | – |
| CCC(C)NC(=O)C1COC2(CCN(C(=O)c3ccc(F)cc3F)CC2)N1C(=O)c1ccccc1 (stereo unspecified) | inconclusive: 14.1 µM [inhibitor, partial curve, poor fit] | – | – |
| Cc1nn(-c2ccccc2)c(C)c1CC(=O)NC1CCCN(Cc2ccccc2F)C1 (stereo unspecified) | inconclusive: 8.91 µM [inhibitor, partial curve] | – | – |
| COc1cccc(CN2C[C@@H](CO)[C@H](C(=O)N(C)C)C2)c1 | – | inactive: -1.87% | – |
| CCOc1ccccc1-c1noc(CSc2nnc(-c3ccncc3)n2-c2ccc(F)cc2)n1 | inconclusive: 10 µM [inhibitor, single point] | – | – |
| COc1ccccc1CNC(=O)c1ccc(CN2C(=O)NC3(CCOCC3)C2=O)cc1 | – | inactive: -6.56% | – |
| O=C(COc1ccccc1)Nc1c(C(=O)N2CCN(c3ccc(F)cc3)CC2)oc2ccccc12 | inconclusive: 15.8 µM [inhibitor, single point] | – | – |
| CC1CCN(C(=O)CN2c3ccc(Br)cc3-c3ccccc3S2(=O)=O)CC1 | inconclusive: 8.91 µM [inhibitor, partial curve] | – | – |
| CCOc1ccc2c(c1)c(=O)c(S(=O)(=O)c1ccc(CC)cc1)cn2CC | – | inactive: -10.8% | – |
| CCc1ccc(OCC(=O)Nc2cc3oc4ccccc4c3cc2OC)c(Br)c1 | – | – | inactive |
| Cc1nc(CC(=O)NCc2ccc3[nH]c(-c4ccc(F)cc4)c(C)c3c2)cs1 | inconclusive: 17.8 µM [inhibitor, single point] | – | – |
| Cc1ccccc1C1(O)CCN(C(=O)c2ccc(C#CC(C)(C)O)o2)C1 (stereo unspecified) | inconclusive: 12.6 µM [inhibitor, partial curve] | – | – |
| COC(=O)c1ccc(C2c3c(-c4ccc(Br)cc4)n[nH]c3C(=O)N2c2ccc(Cl)cc2)cc1 (stereo unspecified) | inconclusive: 10 µM [inhibitor, partial curve, poor fit] | – | – |
| COc1ccc(C(=O)N[C@@H]2CCC[C@@H]2C(=O)NCc2ccc(C)o2)cc1 | inconclusive: 20 µM [inhibitor, single point] | – | – |
| O=C(NCCCc1ccccc1)c1n[nH]c2c1CN(C(=O)c1c(F)cccc1F)CC2 | inconclusive: 0.316 µM [inhibitor, partial curve, poor fit] | – | – |
| COc1ccccc1CC(=O)N1CCC(n2cc(-c3nc(C)no3)nn2)CC1 | inconclusive: 0.562 µM [inhibitor, partial curve] | – | – |
| CC(C)c1ccc(Nc2cc(C(=O)NCCCN(C)Cc3ccccc3)c3ccccc3n2)cc1 | inconclusive: 11.2 µM [inhibitor, single point] | – | – |

| SMILES | Potency | activity, negative = inhibition | outcome |
| --- | --- | --- | --- |
| O=C1OC[C@@H]2CCN(Cc3cnc4ccccc4c3)Cc3ccc(F)cc3N12 | active: 5.62 µM | – | – |
| Cc1cccc(C(=O)N2CCCCCC2c2nc(C)no2)c1 (stereo unspecified) | – | inactive: -17.4% | – |
| COc1cc2c(cc1CNc1ncncn1)CCC2 | inconclusive: 0.141 µM [inhibitor, full curve, poor fit] | – | – |
| O=C(N1CCCC(Cc2nc(C3CCOCC3)no2)C1)C1(c2ccccc2)CC1 (stereo unspecified) | – | inactive: 9.71% | – |
| O=C(c1ccccc1Cl)N1CCCC(c2nc3c(nnn3Cc3ccc(F)cc3F)c(=O)[nH]2)C1 (stereo unspecified) | inconclusive: 12.6 µM [inhibitor, partial curve, poor fit] | – | – |
| CN(C(=O)CSc1nc2ccc(NC(=O)COc3ccc(F)cc3)cc2s1)c1ccccc1 | inconclusive: 10 µM [inhibitor, single point] | – | – |
| O=C(Cc1ccccc1Cl)N1CCCC(n2cc(-c3nc(-c4ccccc4)no3)nn2)C1 (stereo unspecified) | inconclusive: 3.98 µM [inhibitor, single point] | – | – |
| CC(C)CCNC(=O)NC1CCN(C(=O)N2CC3CC(C2)[C@H]2CCCC(=O)N2C3)CC1 (stereo partly specified) | – | inactive: -20.6% | – |
| Fc1ccc2oc([C@H]3CCN(C4CCOCC4)C3)nc2c1 | inconclusive: 39.8 µM [inhibitor, single point] | – | – |
| COc1cccc(CN2Cc3cc(NC(=O)Cc4cccs4)ccc3OCC2=O)c1OC | inconclusive: 2.82 µM [inhibitor, single point] | – | – |
| CCc1ncc(C(=O)N2CCN(c3ccc(Cl)c(Cl)c3)CC2)cn1 | – | inactive: -13.6% | – |
| COc1cc(F)ccc1-c1cn(C)c(=O)n2cc(COc3ccc(C(=O)O)cc3)nc12 | – | inactive: -7.41% [at 44.1 µM] | – |
| Cc1ccc(Cl)cc1NC(=O)N(C)CC1CCOC1 (stereo unspecified) | – | – | inactive [at 5.79 µM] |
| CC1(c2ccccc2)N(Cc2ncccn2)C(=O)OC12CCN(C(=O)Cc1ccc(Cl)cc1)CC2 (stereo unspecified) | active: 12.6 µM | – | – |
| O=C1CCCCC(CNC(=O)c2nccc3ccccc23)N1 (stereo unspecified) | – | inactive: 32.9% | – |
| NC(=O)COc1ccc(Cl)cc1CN1CCCC(CO)(CC2CC2)C1 (stereo unspecified) | inconclusive: 10 µM [inhibitor, partial curve, poor fit] | – | – |
| Cc1ccccc1Cn1c(=O)n(CC2CCC(C(=O)N3CCC(C)CC3)CC2)c(=O)c2sccc21 (stereo unspecified) | active: 11.2 µM | – | – |
| CCC(CC)C(=O)N1CCCN(S(C)(=O)=O)c2ccccc21 | – | inactive: 1.52% | – |
| O=C(Cc1ccccc1)NCCC1CCN(C(=O)Nc2cc(F)ccc2F)CC1 | inconclusive: 14.1 µM [inhibitor, partial curve, poor fit] | – | – |
| Cc1ccc(-c2nc3cc(Cl)ccc3o2)cc1NC(=O)c1cc2ccccc2o1 | inconclusive: 11.2 µM [inhibitor, single point] | – | – |
| Cc1nn2c(c1-c1ccccc1C(C)C)N([S+](=O)([O-])c1ccc(C(C)C)cc1)CCC2 | inconclusive: 22.4 µM [inhibitor, single point] | – | – |
| O=C(c1ccno1)N1C[C@@H]2OCC(=O)N(CC3CCCCC3)[C@@H]2C1 | inconclusive: 3.55 µM [inhibitor, partial curve, poor fit] | – | – |

| SMILES | Potency | activity, negative = inhibition | outcome |
| --- | --- | --- | --- |
| O=C(c1ccco1)N1CCC(OC2CCN(Cc3ccccc3)CC2)CC1 | inconclusive: 11.2 µM [inhibitor, partial curve, poor fit] | – | – |
| COc1ccc(NC(=O)Cn2c(=O)n(Cc3nc(C)no3)c(=O)c3cc4c(cc32)OCO4)cc1 | – | inactive: -23.9% | – |
| CNC(=O)c1cc(-c2ccc(OC)c(OC)c2)cc2c1OCCN2Cc1cccnc1 | inconclusive: 7.08 µM [inhibitor, partial curve, poor fit] | – | – |
| O=c1c2nc(-c3ccoc3)ccc2ncn1-c1ccc(F)cc1F | inconclusive: 31.6 µM [inhibitor, single point] | – | – |
| COc1ccc(NC(=O)c2cc3c(=O)n(Cc4cccs4)ccc3nc2C)c(OC)c1 | inconclusive: 17.8 µM [inhibitor, single point] | – | – |
| Cc1cc(C)c(NC(=O)C2CCN(C(=O)N3CC(C)Oc4ccc(Cl)cc43)CC2)c(C)c1 (stereo unspecified) | inconclusive: 15.8 µM [inhibitor, partial curve, poor fit] | – | – |
| Cc1ccc(CN2CCn3c(nn(-c4ccc(C(F)(F)F)cc4)c3=O)C2)cc1 | inconclusive: 2.82 µM [inhibitor, single point] | – | – |
| COc1ccc(CNC(=O)c2ccc3c(c2)N(C(=O)c2ccc(F)cc2)CC3)cc1 | inconclusive: 0.891 µM [inhibitor, partial curve, poor fit] | – | – |
| Cn1c(C(=O)NCc2ccc(F)cc2)cc2cc(S(=O)(=O)N3CCCCC3)ccc21 | inconclusive: 8.91 µM [inhibitor, single point] | – | – |
| O=C(Cc1cccnc1)N1CCc2c(nc3cc(-c4ccccc4)[nH]n3c2=O)C1 | inconclusive: 10 µM [inhibitor, partial curve, poor fit] | – | – |
| Cc1cc(OCCN2CCOCC2)c(C)c2c1CC[C@@H]([C@H](C)C(=O)NC(C)(C)C)C2 | – | – | inactive [at 44.1 µM] |
| CCOc1ccccc1NC(=O)CN1C(=O)NC(c2ccc(Cl)cc2)C2=C1COC2=O (stereo unspecified) | – | inactive: -15.3% | – |
| Cc1cc(C)cc(C(=O)NC2CCN(c3cn[nH]c(=O)c3)CC2)c1 | – | – | inactive |
| CN1c2cc(C(=O)Nc3ccc(Cl)c(Cl)c3)ccc2C(=O)N2CCCCCC21 (stereo unspecified) | inconclusive: 3.98 µM [inhibitor, single point] | – | – |
| CCCS(=O)(=O)NCc1cccnc1Oc1cccc(C(F)(F)F)c1 | – | inactive: -22.5% | – |
| O=C(C1CC1)N1CCC2(CC1)NC(=O)N(c1cccc(Cl)c1)N2 | inconclusive: 10 µM [inhibitor, single point] | – | – |
| COc1cc(OC)c(NC(=O)c2cc3c(s2)-c2ccc(Cl)cc2SC3)cc1Cl | – | inactive: 24% | – |
| O=C([C@H]1CCC[C@H](O)C1)N(CCC1=CCCCC1)Cc1ccccc1 | inconclusive: 10 µM [inhibitor, single point] | – | – |
| CCS(=O)(=O)Nc1ccc(C2(C(=O)NCc3ccc(F)cc3F)CCCCC2)cc1 | – | – | inactive |
| O=C(NCc1ccccn1)C1c2ccccc2C(=O)N(C2CCCC2)C12CCCCC2 (stereo unspecified) | inconclusive: 1 µM [inhibitor, full curve, poor fit] | – | – |
| O=C(NCC1CCCN(C(=O)c2ccc3[nH]ccc3c2)C1)c1ccc(-c2ccccc2)cc1 (stereo unspecified) | inconclusive: 10 µM [inhibitor, single point] | – | – |
| Cc1ccc(N2C(=O)c3oc4cc(C)c(C)cc4c(=O)c3C2c2cccc(O)c2)nc1 (stereo unspecified) | – | inconclusive: -69.6% [inhibitor] [at 5.79 µM] | – |
